# The other results are listed elsewhere or left out. Shown are side measurements of this screen, not its main read-out; they come without a call. Most of these compounds were active or inconclusive in the main read-out, so they are no random draw. Potencies come from curve fits of mixed quality, noted in brackets.
# Experiments:
# [1] = Cell-based coincidence reporter assay to measure PMP22 gene transcription in S16 Pmp22-F2sN cells - Confirmatory screen (AID 1508646); conditions: S16 Schwann cells Pmp22-F2sN, dual luciferase, 24 h
# In short: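 S16 rat Schwann cells carrying FLuc-2A-NLuc reporter in Pmp22 3' UTR (500-1,000 cells/well) treated with pinned compounds for 24 h at 37C. Dual-luciferase reads: FLuc luminescence first, then NLuc after Stop&Glo.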
# [2] = qHTS Assay for Lipid Storage Modulators (AID 1519); conditions: Drosophila S3 cells, BODIPY lipid droplet/cell ratio, laser cytometry, cells loaded with oleic acid; for AC50: measured here: lipid (BODIPY) channel AC50
# In short: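 Cells seeded at 5,000 per well were treated with compounds over a concentration series and loaded with oleic acid (400 uM, as added). Lipid droplet fluorescence (488 nm excitation, 500-530 nm channel) was read by laser-scanning cytometry and normalized to 20 uM Triacsin C.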
# [3] = measured here: FLuc reporter channel
# [4] = measured here: NLuc reporter channel
# [5] = measured here: cell count channel max response
# [6] = measured here: lipid channel max response
# Tags give direction and shape of the fitted curve.
structure (smiles),measurement,setting,value
COc1cccc(-n2c(SCC(=O)Nc3c(C)cc(C)cc3C)nc3c([nH]c4ccccc43)c2=O)c1,AC50,[1]; [3],"21.7 µM [falling, partial curve]"
same,AC50,[1]; [4],"15.3 µM [falling, partial curve]"
COc1ccc(-c2nc3cnc(Nc4ccccc4)nc3n(C[C@H]3CCCO3)c2=O)cc1,AC50,[2],"10 µM [falling, partial curve]"
COc1c(-c2coc3cc4c(cc3c2=O)CC(O)C(C)(C)O4)ccc2c1C=CC(C)(C)O2 (stereo unspecified),AC50,[2],"0.0631 µM [falling, full curve]"
Cc1oc(-c2cccc(Cl)c2)nc1CN1CCC(C(=O)NCCCN2CCN(c3cccc(Cl)c3)CC2)CC1,AC50,[1]; [3],"21.7 µM [falling, partial curve]"
same,AC50,[1]; [4],"24.3 µM [falling, partial curve]"
COc1cc2c(Cc3c4c5c(cc(OC)c(OC)c5c5c(OC)c(OC)ccc35)CCN4C)c3c4c(cc(OC)c(OC)c4c2cc1OC)CCN3C,max response,[2]; [5],-79.7%
same,max response,[2]; [6],-91.3%
CCN1CCN(CCCNC(=O)c2ccc3c(c2)sc2nc(-c4ccc(C)cc4)cn23)CC1,AC50,[1]; [3],"17.2 µM [falling, partial curve]"
same,AC50,[1]; [4],"17.2 µM [falling, partial curve]"
Nn1nnc2ccccc21,max response,[2]; [5],82.8%
same,max response,[2]; [6],85.2%
COc1cccc(-c2ccc3ncnc(NC4CC4)c3c2)c1,max response,[2]; [5],-19.7%
same,max response,[2]; [6],-34.4%
O=C(N/N=C\c1ccccc1O)c1ccccc1O,max response,[2]; [5],89.6%
same,max response,[2]; [6],99.1%
CCN(CC)CCCNC(=O)c1ccc2c(c1)sc1nc(-c3ccc(C)cc3)cn12,AC50,[1]; [3],"13.7 µM [falling, full curve]"
same,AC50,[1]; [4],"15.3 µM [falling, full curve]"
COc1cc(NS(=O)(=O)c2ccc3[nH]c4c(c3c2)CCCC4)cc(OC)c1OC,AC50,[1]; [3],"24.3 µM [falling, partial curve, poor fit]"
same,AC50,[1]; [4],"24.3 µM [falling, partial curve]"
O=c1c(-c2ccc(F)cc2)nc2cnc(Nc3ccccc3)nc2n1C[C@H]1CCCO1,AC50,[2],"5.01 µM [falling, full curve]"
Cc1cc(C)cc(C(=O)N(C)[C@H](Cc2ccc(-c3ccccc3)cc2)C(=O)N[C@@H](Cc2c[nH]c3ccccc23)C(=O)O)c1,max response,[2]; [5],52.7%
same,max response,[2]; [6],68%
COc1cccc(NC(=O)N(Cc2c[nH]c3ccccc23)C2CCCCCC2)c1,AC50,[1]; [3],"43.2 µM [falling, single point]"
same,AC50,[1]; [4],"34.3 µM [falling, single point]"
COC(=O)c1c(-c2ccc(Cl)cc2)noc1N1CCN(c2ccc(F)cc2)CC1,AC50,[1]; [3],"12.2 µM [falling, partial curve]"
same,AC50,[1]; [4],"13.7 µM [falling, partial curve]"
CNc1ncnc2c1ncn2[C@H]1C[C@H](OP(=O)(O)O)[C@@H](COP(=O)(O)O)O1,max response,[2]; [5],50.1%
same,max response,[2]; [6],49%
CCN1CCOC(=O)C1CC(=O)Nc1cccc(OC)c1 (stereo unspecified),AC50,[1]; [3],"43.2 µM [falling, single point]"
same,AC50,[1]; [4],"43.2 µM [falling, partial curve]"
NC1=NCCCC1,max response,[2]; [5],-9.83%
same,max response,[2]; [6],-10.7%
COc1ccc(CN2CCN(c3ncnc4sc5c(c34)CCCC5)CC2)cc1F,AC50,[1]; [3],"17.2 µM [falling, partial curve]"
same,AC50,[1]; [4],"21.7 µM [falling, partial curve]"
O=S(=O)(c1ccc(-c2csc(=Nc3ccc(OC(F)(F)Cl)cc3)n2CCCO)cc1)N1CCCC1,AC50,[1]; [3],"19.3 µM [falling, partial curve]"
same,AC50,[1]; [4],"19.3 µM [falling, partial curve]"
CC[C@H](C(=O)[C@H](C)[C@H](O)[C@H](C)CCc1ccc(C)c(O)c1C(=O)O)[C@H]1O[C@](CC)([C@@H]2CC[C@@](O)(CC)[C@H](C)O2)C[C@H]1C,AC50,[2],"14.1 µM [falling, partial curve, poor fit]"
CCCOC(=O)c1c(C)oc2c1cc(NS(=O)(=O)c1ccc(OCC)cc1)c1ccccc12,AC50,[1]; [3],"10.9 µM [falling, partial curve, poor fit]"
same,AC50,[1]; [4],"10.9 µM [falling, partial curve]"
Cc1nc(N=Nc2cc(S(=O)(=O)O)c3cc([N+](=O)[O-])cc(S(=O)(=O)O)c3c2)c(COP(=O)(O)O)c(C=O)c1O,max response,[2]; [5],38.8%
same,max response,[2]; [6],36%
O=C(CSc1nc2ccsc2c(=O)n1-c1ccc(Br)cc1)NCc1ccc(Cl)cc1,AC50,[1]; [3],"21.7 µM [falling, partial curve, poor fit]"
same,AC50,[1]; [4],"19.3 µM [falling, partial curve]"
N[C@H](CO)C(=O)O,max response,[2]; [5],36.5%
same,max response,[2]; [6],41.6%
CC(C)NCC(O)COc1cccc2[nH]ccc12 (stereo unspecified),max response,[2]; [5],56.5%
same,max response,[2]; [6],59.6%
CCCC[P+](CCCC)(CCCC)Cc1ccc(NC(=O)[C@@H](Cc2ccc3ccccc3c2)NC(=NC2CCCCC2)NC2CCCCC2)cc1,max response,[2]; [5],52.9%
same,max response,[2]; [6],-30.8%
CCCS(=O)(=O)c1ncc(Cl)c(C(=O)Nc2c(C(=O)Nc3ccccc3)oc3ccccc23)n1,AC50,[1]; [3],"8.62 µM [falling, full curve]"
same,AC50,[1]; [4],"7.69 µM [falling, full curve]"
CCC(=O)N1CCc2cc(S(=O)(=O)CCC(=O)Nc3ccc(Cl)c(C(F)(F)F)c3)ccc21,AC50,[1]; [3],"17.2 µM [falling, partial curve]"
same,AC50,[1]; [4],"19.3 µM [falling, partial curve]"
O=C(CSc1nc2c([nH]c3ccccc32)c(=O)n1-c1ccc(Cl)cc1)NC1CCCCC1,AC50,[1]; [3],"17.2 µM [falling, partial curve]"
same,AC50,[1]; [4],"17.2 µM [falling, partial curve]"
CC(=O)OC(C)C[N+](C)(C)C (stereo unspecified),max response,[2]; [5],48.2%
same,max response,[2]; [6],51.2%
Nc1c[n+](N2CCOCC2)no1,max response,[2]; [5],21.7%
same,max response,[2]; [6],31.5%
COC(=O)CC1C(C)(C)C(OC(C)=O)C2[C@H](OC(C)=O)[C@]34O[C@]2(O)[C@]1(C)C3CC[C@]1(C)C4=CC(=O)OC1c1ccoc1 (stereo partly specified),AC50,[2],"14.1 µM [falling, partial curve]"
CC(=O)OC1c2c(ccc3ccc(=O)oc23)OC(C)(C)C1OC(=O)CC(C)C (stereo unspecified),AC50,[2],"17.8 µM [falling, partial curve]"
CCc1ccc(CNC(=O)CSc2c3c(nc4ccc(Cl)cc24)CCCC3)cc1,AC50,[1]; [3],"15.3 µM [falling, single point]"
same,AC50,[1]; [4],"15.3 µM [falling, single point]"
CC(N)=NCCCC(N)C(=O)O (stereo unspecified),max response,[2]; [5],39.4%
same,max response,[2]; [6],42.2%
Cc1ccc(NS(=O)(=O)c2cc(Br)cc3c2N(C(=O)C2CC2)CC3)cc1C,AC50,[1]; [3],"21.7 µM [falling, partial curve]"
same,AC50,[1]; [4],"21.7 µM [falling, partial curve]"
COc1ccc(Oc2ncc3nc(-c4ccc(Cl)cc4)c(=O)n(C[C@H]4CCCO4)c3n2)cc1,AC50,[2],"15.8 µM [falling, partial curve]"
CCOc1nc2cccc(C(=O)OC(C)OC(=O)OC3CCCCC3)c2n1Cc1ccc(-c2ccccc2-c2nn[nH]n2)cc1 (stereo unspecified),AC50,[2],"4.47 µM [falling, partial curve]"
O=C(c1cccc(F)c1)N1CCC2(CCCN(c3cccc(-c4ccccc4)c3)C2)CC1,max response,[2]; [5],24.2%
same,max response,[2]; [6],-24.7%
COc1ccc(CNc2nc(-c3ccc(N(C)C)cc3)nc3ccccc23)c(OC)c1,max response,[2]; [5],-46.5%
same,max response,[2]; [6],-71.4%
Cc1nc2c(O)cccc2c(=O)[nH]1,max response,[2]; [5],103%
same,max response,[2]; [6],131%
